These results are taken from PubChem BioAssay (NCATS).

A short description of assay [1]: qHTS for Inhibitors of the Functional Ribonucleoprotein Complex (vRNP) of Lymphocytic Choriomeningitis Arenaviruses (LCMV): Viability assay - alamar blue signal for LCMV Primary Screen (AID 1347085; calls by dose curve; tested in HEK293 reporter line; further: nearly all actives have a fitted effect of over 80% in size).
The target of assay [2] is Nucleoprotein (Lymphocytic choriomeningitis virus (strain Armstrong)) (UniProt P09992). As to the kind of experiment: qHTS for Inhibitors of the Functional Ribonucleoprotein Complex (vRNP) of Lymphocytic Choriomeningitis Arenaviruses (LCMV): LCMV Primary Screen - GLuc reporter signal (AID 1347086; calls by dose curve; further: nearly all actives have a fitted effect of over 70% in size). On the technique in general: In qHTS, concentration-response curves come from the screen itself.

A short description of assay [3]: qHTS of pediatric cancer cell lines to identify multiple opportunities for drug repurposing: Primary screen for RD cells (AID 1347104). Further: nearly all actives have a fitted effect of over 55% in size. The method, boiled down: (§1)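 Viability was measured as metabolically active cells after 48 hours of treatment, read by CellTiter-Glo luminescence. Compounds were tested at multiple final concentrations, giving concentration-response curves.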

A short description of assay [4]: qHTS of pediatric cancer cell lines to identify multiple opportunities for drug repurposing: Primary screen for MG 63 (6-TG R) cells (AID 1347105). Further: nearly all actives have a fitted effect of over 50% in size. Summed up:
as §1

Assay [5] is described as follows: qHTS of pediatric cancer cell lines to identify multiple opportunities for drug repurposing: Primary screen for SK-N-MC cells (AID 1347093).
A short description of assay [6]: qHTS of pediatric cancer cell lines to identify multiple opportunities for drug repurposing: Primary screen for NB1643 cells (AID 1347099). Further: nearly all actives have a fitted effect of over 50% in size.
Assay [7] in a line: qHTS for Inhibitors of the Functional Ribonucleoprotein Complex (vRNP) of Lassa (LASV) Arenavirus: LASV Primary Screen - GLuc reporter signal (AID 1347082; calls by dose curve; tested in HEK293 reporter line; further: nearly all actives have a fitted effect of over 60% in size).
The nature of assay [8]: qHTS for Inhibitors of the Functional Ribonucleoprotein Complex (vRNP) of Lassa (LASV) Arenavirus: Viability assay - alamar blue signal for LASV Primary Screen (AID 1347083; calls by dose curve; tested in HEK293 reporter line; further: nearly all actives have a fitted effect of over 80% in size).

Results filed as inconclusive are left out. Unless noted, the call rests on the fitted dose curve; in most records, active means well fitted curve in the direction sought with a large enough effect; inconclusive means small, poorly fitted or top-dose-only effect, or another doubt; inactive means no such curve, though single readings can be large; an effect the other way counts as inactive or inconclusive. Where a structure was tested more than once in an assay, its records may differ in their call. The source holds more than one record for some entries. The other results are left out here. The source may hold further records. Values given together are repeated measurements (runs, samples, wells, individuals or studies). Marks in square brackets tell the records apart. Letters count within one entry.
Potency means the concentration at half of the fitted maximal effect.

Chain of UniProt P09992 (P09992 whole entry, looked up): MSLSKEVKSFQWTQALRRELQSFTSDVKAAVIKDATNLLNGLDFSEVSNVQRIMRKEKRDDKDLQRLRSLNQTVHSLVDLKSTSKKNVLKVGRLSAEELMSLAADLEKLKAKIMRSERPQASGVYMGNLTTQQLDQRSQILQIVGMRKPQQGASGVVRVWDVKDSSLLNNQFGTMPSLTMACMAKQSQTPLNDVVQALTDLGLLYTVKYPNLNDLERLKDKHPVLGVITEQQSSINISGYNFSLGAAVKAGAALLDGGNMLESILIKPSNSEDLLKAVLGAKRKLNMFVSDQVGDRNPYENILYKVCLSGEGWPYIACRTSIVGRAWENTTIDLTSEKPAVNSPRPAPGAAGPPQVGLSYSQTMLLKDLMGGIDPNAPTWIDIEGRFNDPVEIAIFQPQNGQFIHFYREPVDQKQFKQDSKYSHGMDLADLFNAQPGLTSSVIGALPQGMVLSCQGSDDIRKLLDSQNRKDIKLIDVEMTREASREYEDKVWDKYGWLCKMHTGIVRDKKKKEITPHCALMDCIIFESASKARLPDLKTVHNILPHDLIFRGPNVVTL

With `CN(CCOc1ccc(NS(C)(=O)=O)cc1)CCc1ccc(NS(C)(=O)=O)cc1`, the Potency entry in assay [1] is “active: 24.3 µM [sample A] and inactive [sample B]”.
In the case of `NC(=O)N/N=C/c1ccc([N+](=O)[O-])o1`, the Potency result in assay [2] was “active: 28.2 µM [sample A] and inactive [sample B]”.
In the case of `CN1C[C@H]2c3ccccc3Oc3ccc(Cl)cc3[C@@H]2C1`, the Potency entry in assay [1] is “active: 24.3 µM [sample A] and inactive [sample B]”.
As to `Oc1ccc(Cl)cc1Cc1ccccc1`, the Potency result in assay [3] was “active: 61.8 µM [sample A] and inactive [sample B]”; in assay [4], “active: 24.6 µM [sample A] and inactive [sample B]”.
Regarding `CNS(=O)(=O)Cc1ccc2[nH]cc(CCN(C)C)c2c1`, the Potency entry in assay [1] was “inactive [sample A] and active: 10.9 µM [sample B]”.
Turning to `O=C1CC[C@@]2(O)[C@H]3Cc4ccc(O)c5c4[C@@]2(CCN3CC2CC2)[C@H]1O5`, the Potency entry in assay [5] was “active: 18.7 µM [sample A] and inactive [sample B]”; in assay [6], “active: 8.33 µM [sample A] and inactive [sample B]”.
`Nc1nc(F)nc2c1ncn2[C@@H]1O[C@H](CO)[C@@H](O)[C@@H]1O`: the Potency entry in assay [7] was “inactive [sample A] and active: 4.85 µM [sample B]”; in assay [8], “inactive [sample A] and active: 2.17 µM [sample B]”; in assay [1] it was “inactive [sample A] and active: 2.73 µM [sample B]”; in assay [2], “inactive [sample A] and active: 1.72 µM [sample B]”.
